The source of these data is the GPR68 mutational scans of Howard et al. (2025).

The labels stand for the following.
B1: GPR68, Q15743 (parent)
chain: MGNITADNSSMSCTIDHTIHQTLAPVVYVTVLVVGFPANCLSLYFGYLQIKARNELGVYLCNLTVADLFYICSLPFWLQYVLQHDNWSHGDLSCQVCGILLYENIYISVGFLCCISVDRYLAVAHPFRFHQFRTLKAAVGVSVVIWAKELLTSIYFLMHEEVIEDENQHRVCFEHYPIQAWQRAINYYRFLVGFLFPICLLLASYQGILRAVRRSHGTQKSRKDQIQRLVLSTVVIFLACFLPYHVLLLVRSVWEASCDFAKGVFNAYHFSLLLTSFNCVADPVLYCFVSETTHRDLARLRGACLAFLTCSRTGRAREAYPLGAPEASGKSGAQGEEPELLTKLHPAFQTPNSPGSGGFPTGRLA

The variants in data set [1] derive from B1. The experiment in a line: cAMP reporter score (Enrich2 score, wild type = 0); higher = more signal; HEK293T, FACS bins.
Variants of B1 are the subject of data set [2]. The experiment in a line: surface expression score (Enrich2 score, wild type = 0); higher = more signal; HEK293T, FACS bins.

The least precise scores are not listed. Not listed are two conditions whose scores span a narrow range. Names with del lack the residues named; names with ins carry added residues between the positions named. For some of these results: How much ogerin was present is not stated here.

As to S331_A333del, the cAMP reporter score in data set [1] (pH 5.5) worked out at 2.46; in data set [1] (pH 6) it was 0.93; in data set [1] (pH 6, modulator: ogerin), 2.5; in data set [1] (pH 6.5, modulator: ogerin), 1.34. Further, in data set [2], the surface expression score was 0.893.

For E326_A327insGS, the cAMP reporter score in data set [1] (pH 5.5) came to 1.45; in data set [1] (pH 6), 0.671; in data set [1] (pH 6, modulator: ogerin) it was 1.35; in data set [1] (pH 6.5, modulator: ogerin) it was 1.55. Further, the surface expression score in data set [2] stood at 2.66.

Consider S331del, for which the cAMP reporter score in data set [1] (pH 5.5) was -0.359; in data set [1] (pH 6, modulator: ogerin) it was 1.44; in data set [1] (pH 6.5, modulator: ogerin) it was -0.513. For the same variant, the surface expression score in data set [2] was -0.746.

For A333C, the cAMP reporter score in data set [1] (pH 5.5) was found to be 0.741; in data set [1] (pH 6), 1.17; in data set [1] (pH 6, modulator: ogerin), 0.997; in data set [1] (pH 6.5, modulator: ogerin), 1.66. In addition, the surface expression score in data set [2] worked out at 0.459.

In the case of A333L, the cAMP reporter score in data set [1] (pH 5.5) is 0.473; in data set [1] (pH 6), -0.095; in data set [1] (pH 6, modulator: ogerin), 1.2; in data set [1] (pH 6.5, modulator: ogerin), 1.28. Besides, the surface expression score in data set [2] is 0.562.

Take A333F: the cAMP reporter score was 0.334 in data set [1] (pH 5.5); -0.295 in data set [1] (pH 6); 0.039 in data set [1] (pH 6, modulator: ogerin); -0.13 in data set [1] (pH 6.5, modulator: ogerin). In data set [2], the surface expression score was -0.151.

In the case of A333E, the cAMP reporter score in data set [1] (pH 5.5) stood at 1.01; in data set [1] (pH 6), 0.042; in data set [1] (pH 6, modulator: ogerin), 1.06; in data set [1] (pH 6.5, modulator: ogerin), 1. In data set [2], the surface expression score stood at 1.21.

As to A333P, the cAMP reporter score in data set [1] (pH 5.5) is -0.16; in data set [1] (pH 6), -0.374; in data set [1] (pH 6, modulator: ogerin), -0.23; in data set [1] (pH 6.5, modulator: ogerin) it was -0.613. The surface expression score in data set [2] is -0.892.

Turning to A333H, the cAMP reporter score in data set [1] (pH 5.5) is -0.371; in data set [1] (pH 6), 0.088; in data set [1] (pH 6, modulator: ogerin), 0.543; in data set [1] (pH 6.5, modulator: ogerin), -0.512. Moreover, the surface expression score in data set [2] is -0.004.

With A333K, the cAMP reporter score is -0.145 in data set [1] (pH 5.5); -0.101 in data set [1] (pH 6); -0.152 in data set [1] (pH 6, modulator: ogerin); -0.658 in data set [1] (pH 6.5, modulator: ogerin). Besides, in data set [2], the surface expression score was determined as 0.089.

Consider A333M, for which the cAMP reporter score worked out at 1.35 in data set [1] (pH 5.5); 0.629 in data set [1] (pH 6); 1.67 in data set [1] (pH 6, modulator: ogerin); 1.09 in data set [1] (pH 6.5, modulator: ogerin). The surface expression score in data set [2] was found to be 1.5.

With A333N, the cAMP reporter score came out at 1.19 in data set [1] (pH 5.5); 3.03 in data set [1] (pH 6); 2.31 in data set [1] (pH 6.5, modulator: ogerin). Besides, the surface expression score in data set [2] worked out at 1.41.

Regarding A333G, the cAMP reporter score in data set [1] (pH 5.5) is 0.578; in data set [1] (pH 6, modulator: ogerin) it was 0.947; in data set [1] (pH 6.5, modulator: ogerin), -0.019. In addition, in data set [2], the surface expression score was -0.033.

Take A333I: the cAMP reporter score was 0.638 in data set [1] (pH 5.5); -0.523 in data set [1] (pH 6); 0.567 in data set [1] (pH 6, modulator: ogerin); 0.461 in data set [1] (pH 6.5, modulator: ogerin). Besides, in data set [2], the surface expression score amounted to 0.251.

As for A333D, the cAMP reporter score in data set [1] (pH 5.5) was 0.309; in data set [1] (pH 6), 0.085; in data set [1] (pH 6, modulator: ogerin) it was -0.326; in data set [1] (pH 6.5, modulator: ogerin) it was -0.009. The surface expression score in data set [2] amounted to 0.302.

Take P325del: the cAMP reporter score in data set [1] (pH 5.5) turned out to be 0.777; in data set [1] (pH 6) it was 0.65; in data set [1] (pH 6, modulator: ogerin), 1.55; in data set [1] (pH 6.5, modulator: ogerin), 1.95. Further, the surface expression score in data set [2] came out at 0.262.

With G332_Q334del, the cAMP reporter score is 0.139 in data set [1] (pH 5.5); -0.586 in data set [1] (pH 6); 0.34 in data set [1] (pH 6, modulator: ogerin); -0.031 in data set [1] (pH 6.5, modulator: ogerin). Besides, in data set [2], the surface expression score was -0.429.

As to P325_E326del, the cAMP reporter score is -0.214 in data set [1] (pH 5.5); -0.443 in data set [1] (pH 6); 0.087 in data set [1] (pH 6, modulator: ogerin); -0.384 in data set [1] (pH 6.5, modulator: ogerin). The surface expression score in data set [2] is -0.542.

A324W: the cAMP reporter score was 1.84 in data set [1] (pH 5.5); 0.175 in data set [1] (pH 6); 1.77 in data set [1] (pH 6, modulator: ogerin); 1.68 in data set [1] (pH 6.5, modulator: ogerin). Moreover, the surface expression score in data set [2] amounted to 0.358.

Take A324T: the cAMP reporter score is 0.159 in data set [1] (pH 5.5); 0.124 in data set [1] (pH 6); 0.088 in data set [1] (pH 6, modulator: ogerin); 0.004 in data set [1] (pH 6.5, modulator: ogerin). In addition, the surface expression score in data set [2] was 0.216.

Consider A324P, for which the cAMP reporter score in data set [1] (pH 5.5) is 2.73; in data set [1] (pH 6) it was 2.06; in data set [1] (pH 6.5, modulator: ogerin), 0.618. Besides, the surface expression score in data set [2] came out at 3.6.

As to A324M, the cAMP reporter score in data set [1] (pH 5.5) turned out to be 1.31; in data set [1] (pH 6), 0.488; in data set [1] (pH 6, modulator: ogerin), 1.85; in data set [1] (pH 6.5, modulator: ogerin), 1.25. Besides, the surface expression score in data set [2] worked out at 1.38.

As for A324Y, the cAMP reporter score in data set [1] (pH 5.5) was -0.241; in data set [1] (pH 6), 0.724; in data set [1] (pH 6, modulator: ogerin), 0.576; in data set [1] (pH 6.5, modulator: ogerin), 0.264. Besides, the surface expression score in data set [2] amounted to 0.074.

For A324N, the cAMP reporter score in data set [1] (pH 5.5) came out at 0.478; in data set [1] (pH 6) it was 0.702; in data set [1] (pH 6, modulator: ogerin), 2.2; in data set [1] (pH 6.5, modulator: ogerin) it was 1.84. For the same variant, in data set [2], the surface expression score was found to be 1.11.

For the variant A324V, the cAMP reporter score in data set [1] (pH 5.5) was 0.364; in data set [1] (pH 6) it was 0.692; in data set [1] (pH 6, modulator: ogerin) it was 0.649; in data set [1] (pH 6.5, modulator: ogerin) it was 0.569. Besides, in data set [2], the surface expression score was found to be 0.347.

As to A324I, the cAMP reporter score in data set [1] (pH 5.5) was -0.129; in data set [1] (pH 6), 0.664; in data set [1] (pH 6, modulator: ogerin), 0.546; in data set [1] (pH 6.5, modulator: ogerin), 0.353. In addition, in data set [2], the surface expression score is -0.122.

A324L: the cAMP reporter score was 0.565 in data set [1] (pH 5.5); -0.327 in data set [1] (pH 6); 0.509 in data set [1] (pH 6, modulator: ogerin); 0.241 in data set [1] (pH 6.5, modulator: ogerin). Besides, in data set [2], the surface expression score is -0.034.

For the variant A324Q, the cAMP reporter score in data set [1] (pH 5.5) worked out at 0.827; in data set [1] (pH 6, modulator: ogerin), 1.29; in data set [1] (pH 6.5, modulator: ogerin), 1.19. For the same variant, the surface expression score in data set [2] came out at 1.05.

A324K: the cAMP reporter score amounted to 0.682 in data set [1] (pH 5.5); 0.686 in data set [1] (pH 6); 0.983 in data set [1] (pH 6, modulator: ogerin); 0.523 in data set [1] (pH 6.5, modulator: ogerin). Further, the surface expression score in data set [2] amounted to 0.51.

For A324S, the cAMP reporter score was -0.179 in data set [1] (pH 5.5); -0.702 in data set [1] (pH 6); 1.29 in data set [1] (pH 6, modulator: ogerin).

For A324R, the cAMP reporter score in data set [1] (pH 5.5) was determined as 0.649; in data set [1] (pH 6) it was 0.771; in data set [1] (pH 6, modulator: ogerin), 0.915; in data set [1] (pH 6.5, modulator: ogerin), 1.22. Also, the surface expression score in data set [2] came out at 0.071.
